# Changes are numbered by the printed parent chain; changes in the protein carry UniProt numbers. The list shows a part of the results.
# T1: RBFOX1 RRM RbFoxmut (Fox-RRM*) (Homo sapiens, UniProt Q9NWB1 109-208, R118D;E147R;N151S;E152T)
# T1 sequence: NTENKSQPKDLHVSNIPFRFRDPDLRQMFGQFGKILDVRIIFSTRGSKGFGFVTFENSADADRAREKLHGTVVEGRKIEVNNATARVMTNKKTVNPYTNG
# B1: UAUGGGG (DNA:RNA)
# RNA: GGGAGACCGGAAUUCAGAUUGUCCUAUGGGGUUAAAUCCCGUCGUAGCCACCA
# DNA 1: CAATCTGAATTCCGGTCTCCC
# DNA 2: TGGTGGCTACGACGGGATT
# B2: AGACCGC (DNA:RNA)
# RNA: B1 RNA with U25A, A26G, U27A, G28C, G29C, G31C
# DNA 1: CAATCTGAATTCCGGTCTCCC
# DNA 2: TGGTGGCTACGACGGGATT
# B3: UGACGAG (DNA:RNA)
# RNA: B1 RNA with A26G, U27A, G28C, G30A
# DNA 1: CAATCTGAATTCCGGTCTCCC
# DNA 2: TGGTGGCTACGACGGGATT
# B4: GCUCGAG (DNA:RNA)
# RNA: B1 RNA with U25G, A26C, G28C, G30A
# DNA 1: CAATCTGAATTCCGGTCTCCC
# DNA 2: TGGTGGCTACGACGGGATT
# B5: GCGCUCG (DNA:RNA)
# RNA: B1 RNA with U25G, A26C, U27G, G28C, G29U, G30C
# DNA 1: CAATCTGAATTCCGGTCTCCC
# DNA 2: TGGTGGCTACGACGGGATT
# B6: GCUGUGG (DNA:RNA)
# RNA: B1 RNA with U25G, A26C, G29U
# DNA 1: CAATCTGAATTCCGGTCTCCC
# DNA 2: TGGTGGCTACGACGGGATT
# B7: CGAUCGA (DNA:RNA)
# RNA: B1 RNA with U25C, A26G, U27A, G28U, G29C, G31A
# DNA 1: CAATCTGAATTCCGGTCTCCC
# DNA 2: TGGTGGCTACGACGGGATT
# B8: CUGAUGG (DNA:RNA)
# RNA: B1 RNA with U25C, A26U, U27G, G28A, G29U
# DNA 1: CAATCTGAATTCCGGTCTCCC
# DNA 2: TGGTGGCTACGACGGGATT
# B9: AUCGGGC (DNA:RNA)
# RNA: B1 RNA with U25A, A26U, U27C, G31C
# DNA 1: CAATCTGAATTCCGGTCTCCC
# DNA 2: TGGTGGCTACGACGGGATT
# B10: ACUCAGU (DNA:RNA)
# RNA: B1 RNA with U25A, A26C, G28C, G29A, G31U
# DNA 1: CAATCTGAATTCCGGTCTCCC
# DNA 2: TGGTGGCTACGACGGGATT
# B11: GUCACUC (DNA:RNA)
# RNA: GGGAGACCGGAAUUCAGAUUGUCCGUCACUCUUAAAUCCCGUCGUAGCCACCA
# DNA 1: CAATCTGAATTCCGGTCTCCC
# DNA 2: TGGTGGCTACGACGGGATT
# B12: CUCCUUA (DNA:RNA)
# RNA: B11 RNA with G25C, A28C, C29U, C31A
# DNA 1: CAATCTGAATTCCGGTCTCCC
# DNA 2: TGGTGGCTACGACGGGATT
# B13: GAGUUCG (DNA:RNA)
# RNA: B1 RNA with U25G, U27G, G28U, G29U, G30C
# DNA 1: CAATCTGAATTCCGGTCTCCC
# DNA 2: TGGTGGCTACGACGGGATT
# B14: CAUAUCG (DNA:RNA)
# RNA: B1 RNA with U25C, G28A, G29U, G30C
# DNA 1: CAATCTGAATTCCGGTCTCCC
# DNA 2: TGGTGGCTACGACGGGATT
# B15: UCACUUU (DNA:RNA)
# RNA: B11 RNA with G25U, U26C, C27A, A28C, C29U, C31U
# DNA 1: CAATCTGAATTCCGGTCTCCC
# DNA 2: TGGTGGCTACGACGGGATT
# B16: GUCGCGG (DNA:RNA)
# RNA: B11 RNA with A28G, U30G, C31G
# DNA 1: CAATCTGAATTCCGGTCTCCC
# DNA 2: TGGTGGCTACGACGGGATT
# B17: AUGCCAU (DNA:RNA)
# RNA: B11 RNA with G25A, C27G, A28C, U30A, C31U
# DNA 1: CAATCTGAATTCCGGTCTCCC
# DNA 2: TGGTGGCTACGACGGGATT
# B18: ACAGUCC (DNA:RNA)
# RNA: B11 RNA with G25A, U26C, C27A, A28G, C29U, U30C
# DNA 1: CAATCTGAATTCCGGTCTCCC
# DNA 2: TGGTGGCTACGACGGGATT
# B19: CCCGCCA (DNA:RNA)
# RNA: B11 RNA with G25C, U26C, A28G, U30C, C31A
# DNA 1: CAATCTGAATTCCGGTCTCCC
# DNA 2: TGGTGGCTACGACGGGATT
# B20: GCGAGGC (DNA:RNA)
# RNA: B11 RNA with U26C, C27G, C29G, U30G
# DNA 1: CAATCTGAATTCCGGTCTCCC
# DNA 2: TGGTGGCTACGACGGGATT
# B21: CUAAUAC (DNA:RNA)
# RNA: B11 RNA with G25C, C27A, C29U, U30A
# DNA 1: CAATCTGAATTCCGGTCTCCC
# DNA 2: TGGTGGCTACGACGGGATT
# B22: GCCCACU (DNA:RNA)
# RNA: B11 RNA with U26C, A28C, C29A, U30C, C31U
# DNA 1: CAATCTGAATTCCGGTCTCCC
# DNA 2: TGGTGGCTACGACGGGATT
# B23: GCACAUC (DNA:RNA)
# RNA: B11 RNA with U26C, C27A, A28C, C29A
# DNA 1: CAATCTGAATTCCGGTCTCCC
# DNA 2: TGGTGGCTACGACGGGATT
# B24: UUAGAAG (DNA:RNA)
# RNA: B1 RNA with A26U, U27A, G29A, G30A
# DNA 1: CAATCTGAATTCCGGTCTCCC
# DNA 2: TGGTGGCTACGACGGGATT
# B25: ACCCGAA (DNA:RNA)
# RNA: B11 RNA with G25A, U26C, A28C, C29G, U30A, C31A
# DNA 1: CAATCTGAATTCCGGTCTCCC
# DNA 2: TGGTGGCTACGACGGGATT
# B26: AGGCACC (DNA:RNA)
# RNA: B11 RNA with G25A, U26G, C27G, A28C, C29A, U30C
# DNA 1: CAATCTGAATTCCGGTCTCCC
# DNA 2: TGGTGGCTACGACGGGATT
# B27: GGAUGGA (DNA:RNA)
# RNA: B1 RNA with U25G, A26G, U27A, G28U, G31A
# DNA 1: CAATCTGAATTCCGGTCTCCC
# DNA 2: TGGTGGCTACGACGGGATT
# B28: AAGCGAG (DNA:RNA)
# RNA: B1 RNA with U25A, U27G, G28C, G30A
# DNA 1: CAATCTGAATTCCGGTCTCCC
# DNA 2: TGGTGGCTACGACGGGATT
# B29: GUCAAAA (DNA:RNA)
# RNA: B11 RNA with C29A, U30A, C31A
# DNA 1: CAATCTGAATTCCGGTCTCCC
# DNA 2: TGGTGGCTACGACGGGATT
# B30: UCUACGU (DNA:RNA)
# RNA: B1 RNA with A26C, G28A, G29C, G31U
# DNA 1: CAATCTGAATTCCGGTCTCCC
# DNA 2: TGGTGGCTACGACGGGATT
# B31: UGCGGAG (DNA:RNA)
# RNA: B1 RNA with A26G, U27C, G30A
# DNA 1: CAATCTGAATTCCGGTCTCCC
# DNA 2: TGGTGGCTACGACGGGATT
# Biological target: T1, RBFOX1 RRM RbFoxmut (Fox-RRM*)
# Test: EMSA; HiTS-Eq, 1 nM pool, 10 min; buffer printed only for the single-RNA assays: 10 mM Tris pH 7.5, 150 mM NaCl, 3.4 mM EDTA, 0.001% NP-40, 30 C
# Conditions: tags: His6 N-terminal (pET28a); label: 5' 32P
# Procedure, shortened: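 A pool of RNA with 7 randomized nucleotides, 5′-radiolabelled and with DNA-annealed flanks, was equilibrated at 1 nM for 10 min in 50 µL with purified RbFox RRM, wild type or mutant, across increasing protein concentrations. Free RNA was separated by 8% native PAGE, excised, reverse-transcribed, barcoded by PCR and sequenced. Relative association constants were obtained from read-count changes of each RNA species versus the control reaction and normalised to the cognate motif.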
row,Binder,binding signal
1,B1,0.079 KA relative to UGCAUGU
2,B2,0.0771 KA relative to UGCAUGU
3,B3,0.0874 KA relative to UGCAUGU
4,B4,0.181 KA relative to UGCAUGU
5,B5,0.136 KA relative to UGCAUGU
6,B6,0.11 KA relative to UGCAUGU
7,B7,0.0748 KA relative to UGCAUGU
8,B8,0.0847 KA relative to UGCAUGU
9,B9,0.0955 KA relative to UGCAUGU
10,B10,0.0787 KA relative to UGCAUGU
11,B11,0.0323 KA relative to UGCAUGU
12,B12,0.108 KA relative to UGCAUGU
13,B13,0.18 KA relative to UGCAUGU
14,B14,0.1 KA relative to UGCAUGU
15,B15,0.0759 KA relative to UGCAUGU
16,B16,0.0978 KA relative to UGCAUGU

row,Binder,binding signal
1,B17,0.0816 KA relative to UGCAUGU
2,B18,0.0589 KA relative to UGCAUGU
3,B19,0.112 KA relative to UGCAUGU
4,B20,0.0796 KA relative to UGCAUGU
5,B21,0.117 KA relative to UGCAUGU
6,B22,0.064 KA relative to UGCAUGU
7,B23,0.076 KA relative to UGCAUGU
8,B24,0.103 KA relative to UGCAUGU
9,B25,0.103 KA relative to UGCAUGU
10,B26,0.0617 KA relative to UGCAUGU
11,B27,0.0824 KA relative to UGCAUGU
12,B28,0.138 KA relative to UGCAUGU
13,B29,0.115 KA relative to UGCAUGU
14,B30,0.118 KA relative to UGCAUGU
15,B31,0.114 KA relative to UGCAUGU

# From paper PMC9911399, “Two distinct binding modes provide the RNA-binding protein RbFox with extraordinary sequence specificity”
